For 172 sequences, binding signal (normalized occupancy) results are on record in paper PMC4242493.

The list shows a part of the results. The list includes weakly bound sequences.

This test has as its target MaxL homodimer (UniProt P61244). In words: universal protein-binding microarray (PBM). Particulars: PBS-based mixture, 10 nM His-tagged protein dimer, 2% milk, 200 ng/uL BSA, 50 ng/uL salmon testes DNA, 0.02% TX-100; detection with Alexa 488 anti-His …; high values mean tight binding; most listed sequences are background and not binding sites; double strand, one strand shown.
UniProt P61244, sequence (P61244 whole entry): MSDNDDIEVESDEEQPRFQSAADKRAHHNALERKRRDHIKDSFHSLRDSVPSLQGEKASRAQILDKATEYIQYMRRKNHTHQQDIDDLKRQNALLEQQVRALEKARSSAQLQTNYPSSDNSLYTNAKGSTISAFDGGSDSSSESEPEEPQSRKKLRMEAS
As to ACCCCCCC, the binding signal (normalized occupancy) came out at 0.0963.

AGTTCCAT: the binding signal (normalized occupancy) turned out to be 0.082.

For GCACAGAC, the binding signal (normalized occupancy) was 0.0712.

For CATCGCTC, the binding signal (normalized occupancy) was found to be 0.0683.

For AGCAACCC, the binding signal (normalized occupancy) stood at 0.0702.

On to AAAGTGTG, for which the binding signal (normalized occupancy) amounted to 0.0847.

AGCTTGCC: the binding signal (normalized occupancy) was found to be 0.0703.

Turning to CCGACGAA, the binding signal (normalized occupancy) was 0.0722.

For the sequence GCTACTTA, the binding signal (normalized occupancy) was found to be 0.0777.

As to AGCGATAA, the binding signal (normalized occupancy) is 0.0695.

For GGGCCAGA, the binding signal (normalized occupancy) turned out to be 0.071.

Regarding CCGGCTGC, the binding signal (normalized occupancy) was determined as 0.067.

For ATGACATG, the binding signal (normalized occupancy) turned out to be 0.0993.

As to ATACCATA, the binding signal (normalized occupancy) is 0.0804.

Take AGTTCGAC: the binding signal (normalized occupancy) turned out to be 0.0718.

Consider GAGTCTCA, for which the binding signal (normalized occupancy) was found to be 0.0683.

As for ATTGCGAG, the binding signal (normalized occupancy) is 0.0753.

Turning to GGGTACGA, the binding signal (normalized occupancy) is 0.0719.

Take GGGTTTGA: the binding signal (normalized occupancy) was found to be 0.0728.

Turning to AGGGTGAA, the binding signal (normalized occupancy) came to 0.0714.

Regarding AATACGCC, the binding signal (normalized occupancy) was 0.0758.

Take CTTTGAGC: the binding signal (normalized occupancy) turned out to be 0.067.

On to ACGCGTAT, for which the binding signal (normalized occupancy) was 0.0868.

On to GTGGTGTA, for which the binding signal (normalized occupancy) was determined as 0.0801.

Take CGAATGAA: the binding signal (normalized occupancy) came out at 0.0766.

With ATCCTGAA, the binding signal (normalized occupancy) was determined as 0.0784.

Take ATTCTAGG: the binding signal (normalized occupancy) was found to be 0.0763.

In the case of CTTTGAGA, the binding signal (normalized occupancy) was found to be 0.0714.

As for CACTATAA, the binding signal (normalized occupancy) is 0.0847.

On to GGCCACGA, for which the binding signal (normalized occupancy) was 0.0815.

For the sequence GGATCGAC, the binding signal (normalized occupancy) is 0.0761.

In the case of ATGGTCGG, the binding signal (normalized occupancy) stood at 0.0807.

With CTCTGAAC, the binding signal (normalized occupancy) is 0.0745.

Consider ATGCCGCA, for which the binding signal (normalized occupancy) came to 0.0854.

CCTCACAG: the binding signal (normalized occupancy) worked out at 0.0719.

As for AGATTCGA, the binding signal (normalized occupancy) came out at 0.0676.

CGAGGCTC: the binding signal (normalized occupancy) turned out to be 0.0735.

Turning to AGCGCCAA, the binding signal (normalized occupancy) came to 0.0742.

For the sequence ATACACAT, the binding signal (normalized occupancy) was 0.092.

In the case of GACAGTCC, the binding signal (normalized occupancy) turned out to be 0.0686.

As to CACCCGTG, the binding signal (normalized occupancy) was determined as 0.0871.

For the sequence GCAGTTAC, the binding signal (normalized occupancy) amounted to 0.076.

TAGAGTAA: the binding signal (normalized occupancy) stood at 0.0718.

Consider CTCCAGGA, for which the binding signal (normalized occupancy) was 0.0694.

On to CAATAACG, for which the binding signal (normalized occupancy) is 0.0718.

In the case of GTGACCGA, the binding signal (normalized occupancy) stood at 0.0795.

On to CAGGTCAA, for which the binding signal (normalized occupancy) was determined as 0.0719.

In the case of CACCTTGA, the binding signal (normalized occupancy) was determined as 0.0815.

CCTTATAA: the binding signal (normalized occupancy) was 0.084.

For the sequence CAGAACCG, the binding signal (normalized occupancy) turned out to be 0.0713.

Take CGGAGAAA: the binding signal (normalized occupancy) amounted to 0.0676.

As for CCGCAAGG, the binding signal (normalized occupancy) turned out to be 0.0711.

For the sequence CTACTGGA, the binding signal (normalized occupancy) was determined as 0.0727.

On to GAGATTGC, for which the binding signal (normalized occupancy) is 0.0746.

With ACACCCTC, the binding signal (normalized occupancy) is 0.0791.

ACTGACTA: the binding signal (normalized occupancy) stood at 0.0704.

Consider CCACTTCA, for which the binding signal (normalized occupancy) was 0.0741.

Consider AATAGACC, for which the binding signal (normalized occupancy) is 0.0741.

As for ACCGTCAC, the binding signal (normalized occupancy) amounted to 0.0756.

Take TAAAAAGA: the binding signal (normalized occupancy) came to 0.0752.

CATTCGAA: the binding signal (normalized occupancy) came out at 0.073.

As for ATTAACCC, the binding signal (normalized occupancy) is 0.0777.

On to AATAAAAG, for which the binding signal (normalized occupancy) came out at 0.0762.

For the sequence AATTACTG, the binding signal (normalized occupancy) was 0.0697.

Turning to AGCACGAC, the binding signal (normalized occupancy) is 0.0782.

In the case of CTAGTACC, the binding signal (normalized occupancy) is 0.0747.

Take CAAGACGG: the binding signal (normalized occupancy) is 0.0766.

As to ACGGGGGG, the binding signal (normalized occupancy) turned out to be 0.0891.

As to ATCAACCC, the binding signal (normalized occupancy) was determined as 0.0811.

On to AGCAATGC, for which the binding signal (normalized occupancy) stood at 0.0823.

For CTTCAATC, the binding signal (normalized occupancy) is 0.0732.

On to TGACTACA, for which the binding signal (normalized occupancy) was 0.0774.

As to AAGGCAAT, the binding signal (normalized occupancy) turned out to be 0.074.

Turning to AGAACTCT, the binding signal (normalized occupancy) was determined as 0.0685.

With GACGGCTA, the binding signal (normalized occupancy) came out at 0.0708.

With CAGCGCGG, the binding signal (normalized occupancy) amounted to 0.0805.

Take ACCCAGAA: the binding signal (normalized occupancy) amounted to 0.0721.

As to CGCTAAGC, the binding signal (normalized occupancy) was 0.0686.

For AACGTATA, the binding signal (normalized occupancy) amounted to 0.0869.

In the case of ACGGAAGA, the binding signal (normalized occupancy) amounted to 0.0734.

As to CTGAGTTC, the binding signal (normalized occupancy) was 0.0694.

In the case of AGGCGAAG, the binding signal (normalized occupancy) worked out at 0.0748.

For the sequence GTCAACTA, the binding signal (normalized occupancy) is 0.0759.

Take AACCTCCC: the binding signal (normalized occupancy) amounted to 0.0757.

With CTGTCATA, the binding signal (normalized occupancy) was found to be 0.0779.

CCGTTGCA: the binding signal (normalized occupancy) was found to be 0.0742.

With CCAAAGCC, the binding signal (normalized occupancy) came out at 0.0715.

Consider CCCTTATA, for which the binding signal (normalized occupancy) is 0.0809.

For ACCCTGCG, the binding signal (normalized occupancy) turned out to be 0.0765.

Take AAACGGAC: the binding signal (normalized occupancy) is 0.0726.

As to AGGAGCAC, the binding signal (normalized occupancy) came out at 0.0771.

On to CTCTAGTA, for which the binding signal (normalized occupancy) amounted to 0.075.

In the case of CAGAAATG, the binding signal (normalized occupancy) was 0.0776.

Regarding CTCAATGC, the binding signal (normalized occupancy) was 0.0789.

Consider AGGAGGAT, for which the binding signal (normalized occupancy) is 0.0804.

Regarding GGACAAAA, the binding signal (normalized occupancy) turned out to be 0.073.

With AGATCCAC, the binding signal (normalized occupancy) is 0.0809.

Consider CCACGGGG, for which the binding signal (normalized occupancy) turned out to be 0.097.

Take AAGCGACC: the binding signal (normalized occupancy) was found to be 0.0664.

Take CCTTCAAC: the binding signal (normalized occupancy) amounted to 0.0726.

Turning to AAACGATC, the binding signal (normalized occupancy) stood at 0.0729.

Take ACTACGGG: the binding signal (normalized occupancy) is 0.0752.

Turning to CGATATCG, the binding signal (normalized occupancy) worked out at 0.0794.

Regarding GAGTCACC, the binding signal (normalized occupancy) turned out to be 0.0715.

Turning to CTGAGGCC, the binding signal (normalized occupancy) was 0.0692.

In the case of AACCATCA, the binding signal (normalized occupancy) was determined as 0.08.

Consider TGATTAAA, for which the binding signal (normalized occupancy) worked out at 0.078.

AACCAGGC: the binding signal (normalized occupancy) is 0.0765.

In the case of AGCTATAG, the binding signal (normalized occupancy) turned out to be 0.0738.

For the sequence ATCGCGAG, the binding signal (normalized occupancy) is 0.0765.

As to CTAACCTC, the binding signal (normalized occupancy) was found to be 0.0744.

Consider CCCGCTTC, for which the binding signal (normalized occupancy) stood at 0.0706.

As for AATGGTAA, the binding signal (normalized occupancy) came to 0.0744.

Consider AGCGTTAC, for which the binding signal (normalized occupancy) was 0.0823.

TACATAAA: the binding signal (normalized occupancy) came to 0.0813.

As for AGCGCCTC, the binding signal (normalized occupancy) stood at 0.0677.

For AGCGTCCC, the binding signal (normalized occupancy) came to 0.0758.

On to AGATTAGG, for which the binding signal (normalized occupancy) came out at 0.0735.

For the sequence CCGGGTCA, the binding signal (normalized occupancy) was determined as 0.073.

As for TTACTGAA, the binding signal (normalized occupancy) is 0.0754.

Regarding CATCTTAA, the binding signal (normalized occupancy) worked out at 0.0826.

Consider ACCTGCAG, for which the binding signal (normalized occupancy) stood at 0.0725.

Regarding CATTTGGC, the binding signal (normalized occupancy) stood at 0.0759.

As to ATAGTGTA, the binding signal (normalized occupancy) came out at 0.0839.

For the sequence CTCTGTCC, the binding signal (normalized occupancy) was 0.0748.

Turning to GTCTACGA, the binding signal (normalized occupancy) was determined as 0.0736.

With TGCTCTAA, the binding signal (normalized occupancy) came out at 0.0747.

Take TCTTAAAA: the binding signal (normalized occupancy) was determined as 0.0731.

In the case of CTAGTCCC, the binding signal (normalized occupancy) was 0.0702.

On to CACTGGCA, for which the binding signal (normalized occupancy) was 0.0717.

GTCCCAGA: the binding signal (normalized occupancy) amounted to 0.0701.

Regarding AGAGCTAC, the binding signal (normalized occupancy) was 0.0801.

AGATGCAC: the binding signal (normalized occupancy) came to 0.0867.

In the case of CCGATATC, the binding signal (normalized occupancy) is 0.0777.

Regarding GCTACCCC, the binding signal (normalized occupancy) is 0.0838.

Consider AGTCTAGA, for which the binding signal (normalized occupancy) is 0.0705.

AGGCGCGG: the binding signal (normalized occupancy) stood at 0.0756.

As to CACTTGGG, the binding signal (normalized occupancy) came out at 0.075.

For the sequence CCTATGGC, the binding signal (normalized occupancy) turned out to be 0.0713.

For the sequence CAGAAAAA, the binding signal (normalized occupancy) amounted to 0.0719.

As for GAGACAGA, the binding signal (normalized occupancy) was found to be 0.0759.

Turning to AAAAGGCA, the binding signal (normalized occupancy) turned out to be 0.0774.

As for ATCTTATA, the binding signal (normalized occupancy) was found to be 0.0813.

For CTTGTGTC, the binding signal (normalized occupancy) came to 0.0751.

As to GACCAGTC, the binding signal (normalized occupancy) stood at 0.075.

In the case of CTTGAGGA, the binding signal (normalized occupancy) was determined as 0.0717.

Take GATTACGA: the binding signal (normalized occupancy) is 0.0799.

CCATAAGA: the binding signal (normalized occupancy) is 0.0813.

With AAAATGCC, the binding signal (normalized occupancy) was found to be 0.0743.

Turning to AAAGCCTT, the binding signal (normalized occupancy) is 0.0696.

For the sequence TTCCACAA, the binding signal (normalized occupancy) is 0.0785.

CTGTACTC: the binding signal (normalized occupancy) is 0.0799.

For CAGTATGC, the binding signal (normalized occupancy) came out at 0.0721.

Take CGAGGATA: the binding signal (normalized occupancy) amounted to 0.0752.

For the sequence TGAAACAA, the binding signal (normalized occupancy) is 0.0784.

For the sequence CTCTCCAC, the binding signal (normalized occupancy) came to 0.0859.

Regarding ACAACTTA, the binding signal (normalized occupancy) is 0.0755.

Take ATATCTCG: the binding signal (normalized occupancy) stood at 0.0722.

For AATTTACG, the binding signal (normalized occupancy) was 0.0752.

In the case of AACTTCTC, the binding signal (normalized occupancy) was found to be 0.0726.

AAATGACG: the binding signal (normalized occupancy) is 0.0801.

In the case of CCTCCTCC, the binding signal (normalized occupancy) was 0.0782.

For the sequence CGCACAAG, the binding signal (normalized occupancy) stood at 0.0788.

ACCCGGCT: the binding signal (normalized occupancy) is 0.0648.

CCAATCTA: the binding signal (normalized occupancy) came to 0.073.

For the sequence ATGCAGGC, the binding signal (normalized occupancy) is 0.0872.

For the sequence AGCCATTG, the binding signal (normalized occupancy) came to 0.0761.

With GCTAAAGA, the binding signal (normalized occupancy) was 0.0703.

Take ACTTGCCT: the binding signal (normalized occupancy) worked out at 0.0737.

On to GCTGATTA, for which the binding signal (normalized occupancy) is 0.073.

With GCAACAGA, the binding signal (normalized occupancy) came to 0.0747.

As for CAGGCCGA, the binding signal (normalized occupancy) was 0.0691.
